# Assay results from the BET-seq Pho4 binding data (Le et al. 2018).
# Some of the results follow. The energies were worked out here from pooled read counts, against the library average; single values are noisy.
# Biological target: T1, Pho4 (S. cerevisiae) (UniProt P07270)
# T1 sequence: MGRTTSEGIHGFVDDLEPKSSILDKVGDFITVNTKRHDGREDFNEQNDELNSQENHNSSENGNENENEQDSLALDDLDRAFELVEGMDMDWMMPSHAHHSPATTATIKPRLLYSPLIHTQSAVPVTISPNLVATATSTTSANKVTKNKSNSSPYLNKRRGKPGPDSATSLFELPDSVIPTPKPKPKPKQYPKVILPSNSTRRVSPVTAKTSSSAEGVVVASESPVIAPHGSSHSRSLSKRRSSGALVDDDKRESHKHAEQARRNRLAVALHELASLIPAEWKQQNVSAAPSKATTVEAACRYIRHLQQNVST
# Experiment: relative binding free energy (BET-seq); higher = weaker binding
# Conditions: reference: library average
row,Sequence,relative binding free energy [kcal/mol]
1,CTTGTCACGTGGTATC,-0.01
2,TTGGGCACGTGTTATT,-0.01
3,AGATGCACGTGGATAG,0.04
4,GTGAGCACGTGGAGGC,-0.14
5,CATTTCACGTGCGGTG,0.26
6,TAGATCACGTGGGGAA,0
7,CCGAGCACGTGTGGGT,-0.13
8,ATCGTCACGTGATGGG,0.26
9,AGCGTCACGTGTGTTG,0.06
10,GTGAACACGTGTTTAT,-0.16
11,TTTAACACGTGTTGCA,-0.02
12,AGCTTCACGTGTTTAT,0.33
13,TCTTTCACGTGGTCGT,0.15
14,ATGGTCACGTGGCTTG,0.04
15,TCTGGCACGTGCGCGG,-0.21
16,GGTTACACGTGCAGAT,0.16
17,CTGATCACGTGGTTGG,0.04
18,GTATGCACGTGGCATT,-0.09
19,CTTTTCACGTGTTTTA,0.38
20,AAGGTCACGTGTAGCG,0.19
21,GGGGTCACGTGAGCAG,0.29
22,GTTACCACGTGTGGGC,0.03
23,TACATCACGTGGGGGG,-0.06
24,ATAAGCACGTGATATG,-0.07
25,TGAGGCACGTGGTGCG,-0.16
26,AGAGTCACGTGTGGTT,0.19

row,Sequence,relative binding free energy [kcal/mol]
1,GGCAGCACGTGGGTCA,-0.12
2,AGTGTCACGTGCAAGG,0.05
3,AGGGGCACGTGATCAG,0
4,TAGCTCACGTGAAGGT,0.41
5,CATTGCACGTGTAGTT,-0.04
6,TGGATCACGTGGGGGG,0.07
7,TTTTACACGTGAGATT,0.33
8,TTCGTCACGTGCGGTA,0.01
9,CTAGGCACGTGGTTGG,-0.3
10,AGTGTCACGTGGGGTG,-0.13
11,GGTAACACGTGGGCTG,-0.06
12,GAAGGCACGTGTCGGT,-0.05
13,TGTTTCACGTGAGTAC,0.3
14,TGTGACACGTGATATG,-0.13
15,AGGTCCACGTGGGGGG,-0.2
16,AGGGGCACGTGTTGTG,-0.11
17,ACTGGCACGTGAGGAT,0.2
18,TAGGGCACGTGGTCAG,-0.32
19,AGGAACACGTGGAGGT,0.09
20,TATCTCACGTGTCGTT,0.25
21,AGGTTCACGTGAACGT,0.41
22,GTCATCACGTGTTGAT,0.1
23,GGAGGCACGTGTAGAT,0.09
24,TTGTACACGTGTAGCA,0.06
25,GTTTGCACGTGGCGAT,0.07
26,TCGTGCACGTGCTGGT,-0.03

row,Sequence,relative binding free energy [kcal/mol]
1,TGGTACACGTGCACGG,0.14
2,ATTTGCACGTGATCTG,0.04
3,TAGCACACGTGGGTAG,-0.12
4,TTTCACACGTGTTGGC,0.33
5,TGCTGCACGTGTAGTG,-0.01
6,GGATGCACGTGATAGT,-0.01
7,TAAGTCACGTGTAAAG,0.1
8,TTATGCACGTGTCGTA,-0.02
9,TGACTCACGTGGGTAG,-0.03
10,CCTGTCACGTGTTAGG,0.22
11,TTGAGCACGTGAGGAG,0.13
12,TAGTTCACGTGATTAC,0.42
13,AAAGGCACGTGGTTAG,-0.13
14,TTAGTCACGTGGGTGC,0.02
15,GCGGGCACGTGATTTG,0.18
16,GTGTTCACGTGGGCTT,0.17
17,GGGATCACGTGGGCTT,0.15
18,CTTGGCACGTGGATGA,-0.02
19,TGGGTCACGTGAAATT,0.29
20,GTTGACACGTGTATCG,0.09
21,TTTGTCACGTGGTATC,0.11
22,GAAGACACGTGTGCGG,0.18
23,AGGTACACGTGCGGTA,0.06
24,GGGTCCACGTGGATTG,0.06
25,GGGTACACGTGTATTA,0.23
26,GGGGTCACGTGATCTG,0.15

row,Sequence,relative binding free energy [kcal/mol]
1,GGTTACACGTGGCTTG,0.21
2,AAGCGCACGTGTGGGC,-0.01
3,TTAGTCACGTGGGTGT,0.02
4,GGTTGCACGTGGCCTG,-0.14
5,AGGTTCACGTGGGCGT,0.11
6,ATTCGCACGTGTGCGT,-0.06
7,TGAGACACGTGTTTGG,0.01
8,TGGGGCACGTGCTGGA,-0.17
9,TTTGCCACGTGGACGG,-0.09
10,TATGTCACGTGGAGTC,-0.02
11,GTGTGCACGTGCGGTG,-0.07
12,AACTTCACGTGTTGGT,0.27
13,TGATCCACGTGGGTAT,-0.11
14,TGTGACACGTGTTATG,0.05
15,GTAGACACGTGGCTGT,-0.1
16,AAGATCACGTGTAGGA,0.1
17,GTTTTCACGTGTAGGG,0.26
18,GGTGTCACGTGAGAAG,0.23
19,GATGTCACGTGAGTGA,0.13
20,GGGCACACGTGTGGTT,0.04
21,GACGGCACGTGTTAGT,-0.04
22,ATGGTCACGTGCTGCG,0.12
23,GTTCGCACGTGGTTTA,-0.06
24,CATATCACGTGGGTGG,-0.09
25,TTTTTCACGTGTTTAC,0.27
26,TACATCACGTGAGTGT,0.33

row,Sequence,relative binding free energy [kcal/mol]
1,GAAGTCACGTGTTTGG,0.22
2,TTATGCACGTGAGAAA,0.31
3,GTTGTCACGTGATTGA,0.14
4,GGGTGCACGTGGAGTG,-0.01
5,TTGTTCACGTGGTTTA,0.3
6,TCGATCACGTGGGCGG,0.14
7,CGTGACACGTGGGTTA,-0.17
8,AAGGACACGTGAGGTA,0.22
9,TGGATCACGTGGCGGA,0.21
10,GTTTACACGTGTGATT,0.34
11,TAGATCACGTGTGTCG,0.19
12,TGTGTCACGTGACATT,0.29
13,CCGGTCACGTGAGGTG,0.29
14,GTGGGCACGTGGTCTT,-0.06
15,CGTCTCACGTGTGTAG,0.33
16,GGGGTCACGTGAGTAT,0.43
17,CGTGTCACGTGATATG,0.16
18,TGAATCACGTGTTGTA,0.22
19,TAGTACACGTGTTAGT,0.09
20,ATTTGCACGTGAAATG,0.3
21,GATTACACGTGCTGGG,0.12
22,GGAATCACGTGGTGAG,0.17
23,CGGTTCACGTGTGAGG,0.34
24,ACGTGCACGTGTTTTG,-0.14
25,AATGGCACGTGAGCTG,0.2
26,GGAAGCACGTGTAAGG,0.02

row,Sequence,relative binding free energy [kcal/mol]
1,ATAATCACGTGGTTAG,0.04
2,AATGTCACGTGAGGAA,0.23
3,ACTTGCACGTGTAGTT,-0.02
4,GGCGTCACGTGGAGCG,-0.06
5,TTCTACACGTGCGGTT,0.22
6,TTGCACACGTGTGGAT,0
7,TTGTTCACGTGATTAG,0.31
8,AAGTGCACGTGTCGGT,-0.02
9,AAAATCACGTGATTGG,0.35
10,TGTGCCACGTGCAGGG,-0.26
11,GTCAGCACGTGGGGAG,-0.11
12,TTTGCCACGTGGGCTA,-0.24
13,GGGTGCACGTGGAACG,-0.01
14,GGTTTCACGTGGCGCT,0.2
15,TGCTTCACGTGGCGTT,0.23
16,ATTTGCACGTGTAGAA,-0.04
17,GTGGGCACGTGCGGGG,-0.1
18,TCTTACACGTGTTTGG,0.13
19,AAGGACACGTGGGCGC,0.05
20,TGACGCACGTGTGGGG,-0.21
21,TAGTGCACGTGCGTGC,-0.12
22,TAGGGCACGTGTATGA,-0.07
23,CTTGACACGTGAGGGG,0.23
24,AGGAGCACGTGTAGTG,-0.03
25,TTAATCACGTGCTTGG,-0.01
26,ATTAACACGTGTAATG,0.05

row,Sequence,relative binding free energy [kcal/mol]
1,TTGCGCACGTGCTTGG,-0.18
2,TGTCTCACGTGTTTGC,0.15
3,TCGGCCACGTGAGGGT,0.11
4,TATACCACGTGTGGGG,0.09
5,GTGAACACGTGTGGAG,0.17
6,TTAGGCACGTGAATAA,0.12
7,GGTGTCACGTGTTAGT,0.13
8,GGTGGCACGTGAGTGG,0.25
9,GATGGCACGTGAGAAT,0.16
10,TGATACACGTGGATGG,-0.02
11,TATGTCACGTGTATTG,0.01
12,CGTGGCACGTGATGAG,-0.02
13,TTTTACACGTGTGCGA,0.11
14,CGTTTCACGTGGGGGA,0.24
15,TTAGGCACGTGCTGCT,-0.26
16,TAAGACACGTGAGAGG,0.19
17,GTGAACACGTGGTGTT,0.04
18,AGATGCACGTGCAGTT,0
19,GTTGTCACGTGACGGA,0.02
20,TTTGACACGTGAGTTA,0.16
21,ACGATCACGTGGGAGG,0.04
22,GTGTACACGTGTGTTT,0.12
23,TAGTGCACGTGCGATG,-0.15
24,TTTAACACGTGGGTTA,-0.06
25,AAGAACACGTGATGGG,0.07
26,GTGGGCACGTGCCGGA,-0.28

row,Sequence,relative binding free energy [kcal/mol]
1,TATTTCACGTGAGTAT,0.39
2,AAAGTCACGTGAAGGT,0.13
3,CGTGTCACGTGTGCGG,0.12
4,AGGTGCACGTGTCTGA,-0.07
5,ACCGTCACGTGTGGGG,-0.01
6,ATCATCACGTGTTCTG,0.27
7,CGTCGCACGTGGAGTG,-0.08
8,GGTCACACGTGCAGGG,0
9,TGTAGCACGTGGCGGC,-0.17
10,CAGGTCACGTGTGTGA,0.24
11,TGACTCACGTGATGGT,0.18
12,AGGGTCACGTGCTGTA,-0.06
13,GGTGTCACGTGTCTCT,0.12
14,TAGTGCACGTGACTGG,0.08
15,AGGTTCACGTGGGTTA,0.22
16,GGAGGCACGTGTGGCC,-0.14
17,CTGGTCACGTGTGTTG,0.06
18,TTGATCACGTGGGAAG,0.14
19,CAAGGCACGTGGGAGT,-0.18
20,TAATACACGTGAAGTT,0.31
21,TCGTGCACGTGATTGA,0.24
22,TTTGTCACGTGCAGGA,0.2
23,GGATTCACGTGCTGAG,0.3
24,AAAGGCACGTGCGAGT,-0.08
25,AAGTGCACGTGCGGCT,-0.12
26,TTTGACACGTGATTTG,0.24

row,Sequence,relative binding free energy [kcal/mol]
1,CGGTTCACGTGGACTG,0.33
2,TGTCTCACGTGCATTT,0.27
3,GTGGACACGTGTGCGG,-0.1
4,TTTCGCACGTGAGAGT,0.06
5,GTAATCACGTGGTTGA,0.08
6,TTAGGCACGTGTCGAT,0.06
7,GGGAGCACGTGTGTGT,-0.07
8,ATGGGCACGTGCATTA,-0.24
9,GTAGGCACGTGATCGG,-0.19
10,GGCGGCACGTGGATTT,-0.09
11,GATTTCACGTGTAATG,0.32
12,TGGGTCACGTGGGCAT,-0.03
13,ACGGGCACGTGTAGTA,-0.12
14,AAGGTCACGTGCTTTG,0.15
15,ATGTGCACGTGGCTTC,-0.04
16,TGAGTCACGTGTTGTG,0.1
17,TTATGCACGTGTGCTT,0.07
18,CGGTACACGTGTTGAA,0.15
19,AGGAACACGTGTGGAG,0.11
20,GATTGCACGTGGAGGA,0.05
21,AATGTCACGTGTTAAG,0.09
22,GAGGTCACGTGTGTTA,0.15
